Assay results from PubChem BioAssay AID1345083 (National Center for Advancing Translational Sciences (NCATS), 2018).
Values joined by “and” are separate entries in the source; they are usually repeats but may differ in a detail not shown here. Equal entries are not always repeated. The campaign covered roughly 94,000 compounds. About 6,200 (6.6%) were called active. Inconclusive means that the source gave no clear call. Such entries were picked first, then a sample of the others. Calls follow the shape of the dose curve; as a rule, active = well fitted inhibition curve with a large enough effect; inconclusive = small, poorly fitted or top-dose-only effect; inactive = flat fitted curve, though single readings scatter. Potencies beside an inconclusive call are fits to weak or partial responses and may not hold up.

Assay: Cytotoxic Profiling in HEK 293 Cell Line of Diverse Libraries Using Quantitative High-Throughput Screening; also: nearly all actives have a fitted effect of over 60% in size
Conditions: HEK 293 viability, ATP luminescence (CellTiter-Glo), 48-72 h; series mostly up to 115 µM
How it was run: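 CellTiter-Glo luminescence (cellular ATP) was read after 48 or 72 hr of compound exposure at 37 degree Celsius. Cells were HEK 293 plated at 250 cells/well.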
Potency is read from the fitted curve at half-maximal effect; tags tell the direction and shape of the fitted curve.

Row | Compound | Potency
1 | Cc1nn(-c2ccccc2)c2c1C(C(C)C)N(C1CCN([S+](=O)([O-])c3cccc(C(F)(F)F)c3)C1)C2=O (stereo not given) | inconclusive: 31.6 µM [inhibitor, full curve]
2 | Cc1nn(-c2ccccc2)c(Oc2ccccc2F)c1CCC(=O)NCC(C)C | inconclusive: 39.8 µM [inhibitor, partial curve, poor fit]
3 | COc1cccc(CN2Cc3nc(-c4ccsc4)ccc3OCC2=O)c1 | inconclusive: 100 µM [inhibitor, partial curve, poor fit]
4 | COc1ccc(C(=O)NC2CCN(c3cc(-c4ccccc4)[nH]n3)C2)cc1OC (stereo not given) | inconclusive: 44.7 µM [inhibitor, partial curve, poor fit]
5 | COc1cccc(-c2ccc(CN3CCCC(NC(=O)c4ccc(Cl)cc4)C3)cc2)c1 (stereo not given) | inconclusive: 28.2 µM [inhibitor, partial curve, poor fit]
6 | CN(Cc1ccccc1)C(=O)CN1C(=O)COc2ccc(C(=O)COc3cccc(F)c3)cc21 | inconclusive: 17.8 µM [inhibitor, full curve, poor fit]
7 | COc1ccc(OCc2nc(C(=O)NC(C)c3ccccc3)co2)cc1 (stereo not given) | inconclusive: 100 µM [inhibitor, single point]
8 | O=c1[nH]c(C2CCCN(Cc3cccc(Cl)c3)C2)nc2ccc(F)cc12 (stereo not given) | inconclusive: 39.8 µM [inhibitor, partial curve] and inconclusive: 44.7 µM [inhibitor, partial curve, poor fit]
9 | Cc1ccnc(NC(=O)C2CC(=O)N(c3n[nH]c4ccccc34)C2)c1 (stereo not given) | inconclusive: 56.2 µM [inhibitor, partial curve, poor fit]
10 | CC(C)c1cccc(NC(=O)c2cc3n(n2)CC(c2ccc(Cl)cc2)OC3)c1 (stereo not given) | inconclusive: 50.1 µM [inhibitor, partial curve, poor fit]
11 | Cc1nn(-c2ccccc2)c2c1C(C1CC1)N(CC1CN(C(=O)c3ccccc3)C1)C2=O (stereo not given) | inconclusive: 70.8 µM [inhibitor, partial curve, poor fit]
12 | COc1ccccc1CCC(=O)N[C@@H]1CN(c2ncccn2)C[C@H]1CO | inactive
13 | CC(C)n1cc(-c2cc(C(=O)N(C)Cc3cccnc3)c3cc(F)ccc3n2)cn1 | inconclusive: 44.7 µM [inhibitor, partial curve]
14 | O=C1NC(=NC2CCCCC2)C2(CCN(Cc3ccc(F)cc3)C2)N1c1cccnc1 (stereo not given) | inactive
15 | O=C(c1cc(-c2cccnc2)c2nncn2n1)N1CCOCC1 | inactive
16 | O=C1NCCCC1C(=O)N1CCC2(CC1)Nc1ccccc1NC2=O (stereo not given) | inconclusive: 100 µM [inhibitor, single point]
17 | Cc1nn2c(c1-c1ccccc1Oc1ccccc1)N(Cc1ccc(C(=O)O)cc1)CCC2 | active: 44.7 µM
18 | O=C(NCCc1cccs1)c1cccc2c1CCN2C(=O)Nc1ccccc1 | inconclusive: 44.7 µM [inhibitor, partial curve, poor fit]
19 | Cc1nc(-c2ccc(F)cc2)n(CC(=O)Nc2cccc(Cl)c2)c(=O)c1CCO | inconclusive: 39.8 µM [inhibitor, full curve]
20 | CSc1ccc(-c2cccc(C(=O)NCCNC(=O)Nc3ccc(Cl)cc3)c2)cc1 | inconclusive: 35.5 µM [inhibitor, partial curve, poor fit]

Row | Compound | Potency
21 | COc1ccc2c(c1)CCCN2C1CNC1 | inactive
22 | COc1ccc(C2(C(=O)N(C)Cc3ccc4c(c3)OCO4)CCOCC2)cc1 | inconclusive: 56.2 µM [inhibitor, partial curve, poor fit]
23 | COCCc1noc([C@@H]2CC(F)(F)CN2C(=O)c2cnc(C)cn2)n1 | inactive
24 | CCCN1CCCC2(CCN(S(=O)(=O)c3cccc(OC)c3)C2)C1=O (stereo not given) | inactive
25 | COc1ccc(OC)c(CNC(=O)c2noc(-c3ccc(C)cc3)n2)c1 | inconclusive: 39.8 µM [inhibitor, partial curve]
26 | COC[C@@H]1CN(Cc2cn(C)nc2C)C[C@H]1C(=O)NC1CC1 | inconclusive: 89.1 µM [inhibitor, single point]
27 | C#CCNC(=O)c1nc(-c2ccccc2)c2ccccn12 | inconclusive: 100 µM [inhibitor, partial curve, poor fit]
28 | CC(C)CCN1CCOc2cc(C(=O)Nc3cccnc3)ccc2C1 | active: 112 µM
29 | CC(C)Oc1cccc2c1c(NC(=O)CN1CCCC1=O)nn2-c1cccc(F)c1 | inconclusive: 89.1 µM [inhibitor, single point]
30 | COCCn1c(=O)c(C(=O)NCc2cccc(C(F)(F)F)c2)nc2cccnc21 | inactive
31 | O=C(c1ccccc1)N1CCC[C@H]1c1nc(-c2ccc(F)cc2)no1 | inconclusive: 79.4 µM [inhibitor, partial curve, poor fit]
32 | Cc1cnc(C(=O)N2CC[C@H](n3c(=O)n(C)c4cccnc43)C2)cn1 | inactive
33 | CC1=C[C@@H](CN)[C@H](C(C)C)C[C@H]1Cc1nc2ccc(Cl)cc2[nH]1 | active: 50.1 µM
34 | O=C(c1ccccc1F)N1CCC2(CCc3nn(Cc4ccccc4)c(=O)n3CC2)CC1 | inconclusive: 44.7 µM [inhibitor, partial curve, poor fit]
35 | COc1ccc2nc3n(c2c1)[C@@H](CNCc1ccc(C(=O)O)cc1)COC3 | inactive
36 | O=C(Nc1ccccc1)c1cnc2n1CCN(Cc1cccc(O)c1)CC2 | inconclusive: 100 µM [inhibitor, partial curve, poor fit]
37 | CCN1c2cc(C(=O)Nc3ccc(Br)c(C)c3)ccc2C(=O)N2CCCC21 (stereo not given) | inconclusive: 89.1 µM [inhibitor, single point]
38 | CCOC(=O)C1(Cc2ccc(F)cc2)CCCN(C(=O)c2ccc(N(C)C)cc2)C1 (stereo not given) | inconclusive: 79.4 µM [inhibitor, partial curve]
39 | COc1cccc(-c2cc(-c3c(C)noc3C)c3cncn3c2)c1OC | active: 79.4 µM
40 | O=C(NC1CCCN(c2cc(-c3ccc(F)cc3)[nH]n2)C1)c1cccc(Cl)c1 (stereo not given) | active: 35.5 µM
